Measurements taken from the supplement of paper PMC4967469.
By IC50 is meant the dose at which the fit gives 50% viability; a limit (>, <) means that the fit lies beyond the doses tested. AUC sums up the same curve from the lowest dose to the 256-fold higher top dose; values near 1 show little effect. Any top dose called inferred is not printed in the source and was worked back from the curve model.

Experiments:
Experiment in all cases: Viability of human cancer cell lines after 72 h of drug (GDSC screen)
Vinorelbine = compound: CCC1=C[C@@H]2CN(C1)Cc1c([nH]c3ccccc13)[C@@](C(=O)OC)(c1cc3c(cc1OC)N(C)[C@H]1[C@@](O)(C(=O)OC)[C@H](OC(C)=O)[C@]4(CC)C=CCN5CC[C@]31[C@@H]54)C2 [Vinorelbine]; details: top dose 0.064 µM; top dose inferred
Description: (§1)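 Human cancer cell lines in 384-well plates, medium with 10% serum, drug for 72 h over a 256-fold dose range (nine 2-fold or five 4-fold steps up to the top dose). Adherent lines were fixed and stained with the nucleic acid dye Syto60, suspension lines read with resazurin; signal relative to control wells, capped at 0 and 100%. One two-parameter sigmoid per drug and line, fitted in a mixed model over all curves with the slope shared within a line.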

XL-184 = compound: COc1cc2nccc(Oc3ccc(NC(=O)C4(C(=O)Nc5ccc(F)cc5)CC4)cc3)c2cc1OC [XL-184]; details: top dose 5.12 µM; top dose inferred
Description: as §1

NU-7441 = compound: O=c1cc(N2CCOCC2)oc2c(-c3cccc4c3sc3ccccc34)cccc12 [NU-7441]; details: top dose 2 µM; top dose inferred
Description: as §1

QL-XI-92 = compound: C=CC(=O)Nc1cc(NC(=O)c2ccc(C)c(NC(=O)c3ccno3)c2)cc(C(F)(F)F)c1 [QL-XI-92]; details: top dose 10.24 µM; top dose inferred
Description: as §1

WHI-P97 = compound: COc1cc2ncnc(Nc3cc(Br)c(O)c(Br)c3)c2cc1OC [WHI-P97]; details: top dose 10.24 µM; top dose inferred
Description: as §1

AG-014699 = compound: CNCc1ccc(-c2[nH]c3cc(F)cc4c3c2CCNC4=O)cc1 [AG-014699]; details: top dose 5 µM; top dose inferred
Description: as §1

EHT 1864 = compound: O=c1cc(CN2CCOCC2)occ1OCCCCCSc1ccnc2cc(C(F)(F)F)ccc12 [EHT 1864]; details: top dose 10 µM; top dose inferred
Description: as §1

Phenformin = compound: N=C(N)NC(=N)NCCc1ccccc1 [Phenformin]; details: top dose 4000 µM; top dose inferred
Description: as §1

Row | Cell Line | AUC (Vinorelbine) | IC50 (Vinorelbine) [µM] | AUC (XL-184) | IC50 (XL-184) [µM] | AUC (NU-7441) | IC50 (NU-7441) [µM] | AUC (QL-XI-92) | IC50 (QL-XI-92) [µM] | AUC (WHI-P97) | IC50 (WHI-P97) [µM] | AUC (AG-014699) | IC50 (AG-014699) [µM] | AUC (EHT 1864) | IC50 (EHT 1864) [µM] | AUC (Phenformin) | IC50 (Phenformin) [µM]
1 | NCI-H2085 (lung adenocarcinoma, adherent) | 0.885 | > 0.064 | 0.948 | > 5.12 | 0.972 | > 2 | 0.952 | > 10.2 | 0.874 | > 10.2 | 0.987 | > 5 | 0.986 | > 10 | 0.843 | 3170
2 | NUGC-3 (stomach, adherent) | 0.551 | 0.0056 | 0.984 | > 5.12 | 0.93 | > 2 | 0.983 | > 10.2 | 0.923 | > 10.2 | 0.908 | > 5 | 0.979 | > 10 | 0.869 | > 4000
3 | OSC-19 (head and neck, adherent) | 0.592 | 0.00724 | 0.902 | > 5.12 | 0.928 | > 2 | 0.987 | > 10.2 | 0.92 | > 10.2 | 0.987 | > 5 | 0.978 | > 10 | 0.823 | 2490
4 | OVCAR-3 (ovary, adherent) | 0.564 | 0.00608 | 0.986 | > 5.12 | 0.966 | > 2 | 0.987 | > 10.2 | 0.986 | > 10.2 | 0.943 | > 5 | 0.969 | > 10 | 0.775 | 1750
5 | PANC-10-05 (pancreas, adherent) | 0.526 | 0.00481 | 0.941 | > 5.12 | 0.943 | > 2 | 0.969 | > 10.2 | 0.93 | > 10.2 | 0.952 | > 5 | 0.916 | > 10 | 0.685 | 964
6 | PC-3 [JPC-3] (lung adenocarcinoma, adherent) | 0.758 | 0.0292 | 0.96 | > 5.12 | 0.981 | > 2 | 0.967 | > 10.2 | 0.728 | 3.59 | 0.924 | > 5 | 0.939 | > 10 | 0.692 | 1040
7 | RERF-GC-1B (stomach, adherent) | 0.653 | 0.0112 | 0.842 | 4.2 | 0.985 | > 2 | 0.947 | > 10.2 | 0.976 | > 10.2 | 0.974 | > 5 | 0.93 | > 10 | 0.955 | > 4000
8 | RT4 (bladder, adherent) | 0.9 | > 0.064 | 0.748 | 1.73 | 0.983 | > 2 | 0.974 | > 10.2 | 0.911 | > 10.2 | 0.987 | > 5 | 0.987 | > 10 | 0.914 | > 4000
9 | SK-CO-1 (large intestine, adherent) | 0.63 | 0.00892 | 0.986 | > 5.12 | 0.976 | > 2 | 0.989 | > 10.2 | 0.984 | > 10.2 | 0.988 | > 5 | 0.989 | > 10 | 0.734 | 1100
10 | SK-LU-1 (lung adenocarcinoma, adherent) | 0.755 | 0.0272 | 0.924 | > 5.12 | 0.954 | > 2 | 0.946 | > 10.2 | 0.939 | > 10.2 | 0.943 | > 5 | 0.959 | > 10 | 0.846 | > 4000
11 | SK-N-AS (neuroblastoma, adherent) | 0.953 | > 0.064 | 0.979 | > 5.12 | 0.981 | > 2 | 0.897 | > 10.2 | 0.978 | > 10.2 | 0.967 | > 5 | 0.947 | > 10 | 0.697 | 986
12 | SK-N-SH (neuroblastoma, adherent) | 0.845 | 0.0456 | 0.937 | > 5.12 | 0.968 | > 2 | 0.94 | > 10.2 | 0.975 | > 10.2 | 0.986 | > 5 | 0.976 | > 10 | 0.878 | 3990
13 | SK-OV-3 (ovary, adherent) | 0.612 | 0.0088 | 0.938 | > 5.12 | 0.978 | > 2 | 0.894 | > 10.2 | 0.931 | > 10.2 | 0.981 | > 5 | 0.976 | > 10 | 0.775 | 2000
14 | SNB75 (glioma, adherent) | 0.626 | 0.0104 | 0.978 | > 5.12 | 0.961 | > 2 | 0.959 | > 10.2 | 0.979 | > 10.2 | 0.978 | > 5 | 0.977 | > 10 | 0.589 | 490
15 | SU-DHL-10 (B-cell lymphoma, suspension) | 0.42 | 0.00257 | 0.974 | > 5.12 | 0.97 | > 2 | 0.954 | 9.91 | 0.998 | > 10.2 | 0.995 | > 5 | 0.997 | > 10 | 0.426 | 166
16 | SW48 (large intestine, adherent) | 0.551 | 0.0055 | 0.92 | > 5.12 | 0.981 | > 2 | 0.986 | > 10.2 | 0.928 | > 10.2 | 0.968 | > 5 | 0.946 | > 10 | 0.803 | 1980
17 | SW900 (lung squamous cell carcinoma, adherent) | 0.565 | 0.00619 | 0.919 | > 5.12 | 0.966 | > 2 | 0.985 | > 10.2 | 0.98 | > 10.2 | 0.941 | > 5 | 0.982 | > 10 | 0.831 | 3110
